The other results are listed elsewhere or left out.
B1: chr5:181194513:181194614:-|3pUTR|ENSG00000146054|unk|total|mutant (ssRNA)
RNA: GGGAGUUCUACAGUCCGACGAUCUCUUUGAGUGACAAGCCCGGGACAACAGCCAGUGGGCAUCACGGCUCUCCAGCACUCCUCCGCCGGAGGAUACAGAGUGAUGGGUGCAUCCUGACCAAUGCGACAACCAACACGUGCUCUCAACAGAGGAUUGAGCAUCA
B2: chr8:17753977:17754079:-|CDS|ENSG00000129422|unk|total|mutant (ssRNA)
RNA: GGGAGUUCUACAGUCCGACGAUCAAAAAAGCAGAAAUUCUAAUUAACAAGACACAUAAGCAGCAGUUUAAUAAACUCAUUACCCGCCAGGCUGUGCAUGUUACAACUCAUUCUAAAAAUGCUUCACACAGGGUUCCAAGAACACAACAGAGGAUUGAGCAUCA
B3: chr20:32656575:32657945:-|three_prime_utr|ENSG00000285382|control|control|control (ssRNA)
RNA: GGGAGUUCUACAGUCCGACGAUCAACCUCCACCUCCCAGGUUCAAGGGAUUCUUCUGCCUCAGCCUCCUGAGUAACUGGGAUUAGGGGUGCCCACCACCAUGUCUGGCUAAUUUUUAUAUUUUUAGUAGAGACGGGGUUUUGCCAACAGAGGAUUGAGCAUCA
B4: chr7:20410151:20410448:+|3pUTR|ENSG00000105855|msi1|total|mutant (ssRNA)
RNA: GGGAGUUCUACAGUCCGACGAUCACCCGUGUCGUUGCCGCACUUUACUGUAAUAUAUAACUUAUUCCGAUCAGCACCGAAUGCCGAUCCUCUGAAGAGCACUGAUUACACUUUACAGGUACCUGUUAUCCCUACGCUUCCCAGCAACAGAGGAUUGAGCAUCA
B5: chr3:186789481:186789582:+|3pUTR|ENSG00000156976|msi1_unk|total|mutant (ssRNA)
RNA: GGGAGUUCUACAGUCCGACGAUCUUGGGGUGGGUAUAAAAGAUGGGGUCUGUAAAAUCUUUCUUUCUCCGAAAUUUAUUUCCCCGUUCUGCCGAAAUGGUUGUAUCCGAUGUUCUCUAUCAUUUAAUAAUAUACUUGUGGACUCAACAGAGGAUUGAGCAUCA
B6: chr17:35976492:35977731:-|three_prime_utr|ENSG00000275152|control|control|control (ssRNA)
RNA: GGGAGUUCUACAGUCCGACGAUCAUUAUUACAGCAAAGAAUGGUCAACCCCAGCUCCUCAACUCCCAGUGAUGACCAGGCUUUAGUGGAAGCCCUUGUUUACAGAAGAGAGGGGUAAACCUAUGAAAACAGGGGAAGCCUUAUCAACAGAGGAUUGAGCAUCA
B7: chr12:39553410:39553513:-|3pUTR|ENSG00000173208|unk|total|mutant (ssRNA)
RNA: GGGAGUUCUACAGUCCGACGAUCUAAGAUUCAAACUUUGAGUGACAUUCCGUCCAUUUAUGGUUGAUAUCCGGUUUAACCGCCCGAAUUCAAAUUGAUUAUUGCCCGUGGCCAACUAAACCUGUACAAAACCGCUGACAGUUUCAACAGAGGAUUGAGCAUCA
B8: ENSG00000115380:stop:overlap|stop_codon|ENSG00000115380|stop_codon|NA|stop_codon (ssRNA)
RNA: GGGAGUUCUACAGUCCGACGAUCGGACCUUCCGCACAAGCUCUGUGUUAAGAUUGACAAUAAUAGUGGGGCCAUUUUCAUUUUAGUCUUUUCUAAGAGUCAACCACAGGCAUUUAAGUCAGCCAAAGAAUAUUGUUACCUUAACAACAGAGGAUUGAGCAUCA
B9: chr3:50258797:50258898:+|3pUTR|ENSG00000114353|msi1|total|mutant (ssRNA)
RNA: GGGAGUUCUACAGUCCGACGAUCGCACAAGAAGCGUGAGACGCCACCAUUCCUGGAAACCACAGUCCACCUGCUCAUUCUCGCCGCUUUUUAAAAAAAUGAAAGUAAAGGAAAAAAAAAAAACUGCAAAUCCCGAAAACUUUUCAACAGAGGAUUGAGCAUCA
B10: chr6:110609977:110614534:-|three_prime_utr|ENSG00000155111|control|control|control (ssRNA)
RNA: GGGAGUUCUACAGUCCGACGAUCAUUUAAAACUCAUACACAUGGGAGGAAAACCUUAUAUACUGAGCAUUGUGCAGGACUGAUAGCUCUUCUUUAUUGACUUAAAGAAGAUUCUUGUGAAGUUUCCCCAGCACCCCUUCCCUGCAACAGAGGAUUGAGCAUCA
B11: ENSG00000013293:stop:overlap|stop_codon|ENSG00000013293|stop_codon|NA|stop_codon (ssRNA)
RNA: GGGAGUUCUACAGUCCGACGAUCAACACAAACAGAACUCAGAGGCCCUGAUUGCAAAUGAUGAGUUAGAUUACUCUCCAGAGUAGGAGAAACACACAAGUGGGUAGAAAUGGUGAUGACUGAUUUUCAGUAACUUAACCUGUGCAACAGAGGAUUGAGCAUCA
B12: ENSG00000198589:be:win_1301|CDS|ENSG00000198589|bound_else_gene|NA|bound_elsewhere_windowed (ssRNA)
RNA: GGGAGUUCUACAGUCCGACGAUCCAUCUCCUAAGGACAACCCUUCAAUUUUUGUUCAUUCACCACAUGCACUCAUGCUCCAGGAUGUAAAGGCAGUUUUAACACAUUCCAUCCAAAGUGCAAUGCAUUCAAUUGGAGGAGUACCAACAGAGGAUUGAGCAUCA
B13: chr15:65454262:65454415:-|CDS|ENSG00000074603|control|control|control (ssRNA)
RNA: GGGAGUUCUACAGUCCGACGAUCAAUUGACGAUCAGGUGGAAGGACUCCAAUAUCUAGCUUCUCGAUAUGAUUUCAUUGACUUAGAUCGUGUGGGCAUCCACGGCUGGUCCUAUGGAGGAUACCUCUCCCUGAUGGCAUUAAUCAACAGAGGAUUGAGCAUCA
B14: ENSG00000198589:be:win_2501|CDS|ENSG00000198589|bound_else_gene|NA|bound_elsewhere_windowed (ssRNA)
RNA: GGGAGUUCUACAGUCCGACGAUCAGAGCAUGGAGGUUCGCAGAGCCUUUCUUUCUGACAUGAUUAAACUUUUUAAUAACAGUAGAGAAAACAGGAGGAGCUUGCUACAAUGCUCUGUGUGGCAAGAAUGGAUGCUUUCUCUCUCAACAGAGGAUUGAGCAUCA

biological target: MSI1 full-length (mouse, UniProt Q61474 1-362); assay: nsRBNS (natural sequence RNA bind-n-seq); RBNS binding buffer (assumed for nsRBNS): 25 mM Tris pH 7.5, 150 mM KCl, 3 mM MgCl2, 0.01% Triton X-100, 500 ug/ml BSA, 20 U/ml SUPERase-In, 4 C; UNK is unkempt and MSI1 is Musashi-1; names of the RNAs are library labels; protein concentration not given here; high values mean tight binding
Chain of UniProt Q61474 (Q61474 whole entry): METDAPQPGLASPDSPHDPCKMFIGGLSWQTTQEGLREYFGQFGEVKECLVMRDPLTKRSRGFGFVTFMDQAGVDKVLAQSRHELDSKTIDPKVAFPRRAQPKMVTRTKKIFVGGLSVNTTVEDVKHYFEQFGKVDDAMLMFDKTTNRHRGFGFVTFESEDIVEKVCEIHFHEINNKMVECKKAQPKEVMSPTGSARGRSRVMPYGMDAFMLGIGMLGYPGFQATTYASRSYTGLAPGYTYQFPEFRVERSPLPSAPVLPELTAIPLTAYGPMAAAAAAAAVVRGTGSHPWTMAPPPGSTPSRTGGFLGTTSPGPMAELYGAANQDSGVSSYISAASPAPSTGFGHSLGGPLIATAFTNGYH

Binder | binding signal [enrichment R]
B1 | 0.305
B2 | 0.596
B3 | 0.869
B4 | 0.529
B5 | 0.837
B6 | 0.785
B7 | 0.185
B8 | 0.911
B9 | 0.538
B10 | 0.218
B11 | 18.5
B12 | 0.284
B13 | 0.725
B14 | 0.315
